From PubChem BioAssay (NCI)
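Cells were grown in 96-well plates and exposed to each compound for 48 hours at five concentrations; endpoints were interpolated linearly between bracketing concentrations, or set to the highest concentration if not reached. The concentration for full growth arrest is given as TGI.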

Assays:
Assay in all cases: NCI tumour cell line growth inhibition, 48 h
OVCAR-4 ovarian = test system: OVCAR-4 ovarian
A549 NSCLC = test system: A549 NSCLC
SK-MEL-2 melanoma = test system: SK-MEL-2 melanoma
OVCAR-3 ovarian = test system: OVCAR-3 ovarian
ACHN renal = test system: ACHN renal
IGROV1 ovarian = test system: IGROV1 ovarian
M14 melanoma = test system: M14 melanoma
COLO 205 colon = test system: COLO 205 colon
UO-31 renal = test system: UO-31 renal
U251 CNS = test system: U251 CNS
MDA-MB-435 = test system: MDA-MB-435
SK-MEL-28 melanoma = test system: SK-MEL-28 melanoma
SK-OV-3 ovarian = test system: SK-OV-3 ovarian
T-47D breast = test system: T-47D breast
UACC-62 melanoma = test system: UACC-62 melanoma
SF-295 CNS = test system: SF-295 CNS
786-0 renal = test system: 786-0 renal
PC-3 prostate = test system: PC-3 prostate
RPMI-8226 leukemia = test system: RPMI-8226 leukemia
SW-620 colon = test system: SW-620 colon
HT29 colon = test system: HT29 colon
A498 renal = test system: A498 renal
LOX IMVI melanoma = test system: LOX IMVI melanoma
OVCAR-5 ovarian = test system: OVCAR-5 ovarian
CCRF-CEM leukemia = test system: CCRF-CEM leukemia
MALME-3M melanoma = test system: MALME-3M melanoma
HOP-92 NSCLC = test system: HOP-92 NSCLC
NCI-H226 lung = test system: NCI-H226 lung
NCI/ADR-RES ovarian = test system: NCI/ADR-RES ovarian
EKVX NSCLC = test system: EKVX NSCLC
TK-10 renal = test system: TK-10 renal
MOLT-4 leukemia = test system: MOLT-4 leukemia
CAKI-1 renal = test system: CAKI-1 renal
SNB-75 CNS = test system: SNB-75 CNS
HS 578T breast = test system: HS 578T breast
DU-145 prostate = test system: DU-145 prostate
MDA-MB-231 breast = test system: MDA-MB-231 breast
MCF7 breast = test system: MCF7 breast
SK-MEL-5 melanoma = test system: SK-MEL-5 melanoma
NCI-H460 lung = test system: NCI-H460 lung
HOP-62 NSCLC = test system: HOP-62 NSCLC
HCC-2998 colon = test system: HCC-2998 colon
SF-539 CNS = test system: SF-539 CNS
NCI-H23 lung = test system: NCI-H23 lung
K-562 leukemia = test system: K-562 leukemia
HCT-15 colon = test system: HCT-15 colon
SF-268 CNS = test system: SF-268 CNS
KM12 colon = test system: KM12 colon
HL-60(TB) leukemia = test system: HL-60(TB) leukemia
NCI-H522 lung = test system: NCI-H522 lung

COc1cc2c(cc1OC)-c1[nH]c3ccccc3c1CC(=O)N2
TGI (OVCAR-4 ovarian): > 100 µM
TGI (A549 NSCLC): > 100 µM
TGI (SK-MEL-2 melanoma): 85.6 µM
TGI (OVCAR-3 ovarian): > 100 µM
TGI (ACHN renal): > 100 µM
TGI (IGROV1 ovarian): > 100 µM
TGI (M14 melanoma): > 100 µM
TGI (COLO 205 colon): 62.2 µM
TGI (UO-31 renal): > 100 µM
TGI (U251 CNS): > 100 µM
TGI (MDA-MB-435): 56.1 µM
TGI (SK-MEL-28 melanoma): 79.3 µM
TGI (SK-OV-3 ovarian): > 100 µM
TGI (T-47D breast): > 100 µM
TGI (UACC-62 melanoma): 72 µM
TGI (SF-295 CNS): > 100 µM
TGI (786-0 renal): > 100 µM
TGI (PC-3 prostate): > 100 µM
TGI (RPMI-8226 leukemia): > 100 µM
TGI (SW-620 colon): > 100 µM
TGI (HT29 colon): > 100 µM
TGI (A498 renal): > 100 µM
TGI (LOX IMVI melanoma): > 100 µM
TGI (OVCAR-5 ovarian): > 100 µM
TGI (CCRF-CEM leukemia): > 100 µM
TGI (MALME-3M melanoma): 80.1 µM
TGI (HOP-92 NSCLC): > 100 µM
TGI (NCI-H226 lung): > 100 µM
TGI (NCI/ADR-RES ovarian): > 100 µM
TGI (EKVX NSCLC): 67.3 µM
TGI (TK-10 renal): > 100 µM
TGI (MOLT-4 leukemia): > 100 µM
TGI (CAKI-1 renal): 50.4 µM
TGI (SNB-75 CNS): > 100 µM
TGI (HS 578T breast): 4.67 µM
TGI (DU-145 prostate): > 100 µM
TGI (MDA-MB-231 breast): > 100 µM
TGI (MCF7 breast): > 100 µM
TGI (SK-MEL-5 melanoma): 71.9 µM
TGI (NCI-H460 lung): > 100 µM
TGI (HOP-62 NSCLC): > 100 µM
TGI (HCC-2998 colon): 89.2 µM
TGI (SF-539 CNS): > 100 µM
TGI (NCI-H23 lung): 54.5 µM
TGI (K-562 leukemia): > 100 µM
TGI (HCT-15 colon): > 100 µM
TGI (SF-268 CNS): > 100 µM
TGI (KM12 colon): 66.2 µM
TGI (HL-60(TB) leukemia): > 100 µM
TGI (NCI-H522 lung): 46.4 µM
